Assay results published in PubChem BioAssay AID1508623 (National Center for Advancing Translational Sciences (NCATS), 2021).
Screen size: about 48,000 compounds; about 450 (0.94%) were called active. Inconclusive results, whose numbers are uncertain, are shown with a selection of clear calls. The call rests on the fitted dose curve; in most records, active means well fitted inhibition curve with a large enough effect; inconclusive means small, poorly fitted or top-dose-only effect; inactive means no such curve, though single readings can be large or run the other way. A potency beside an inconclusive call is a rough fit, not a confirmed value.

Assay: Primary qHTS for Identification of Small Molecule Inhibitors of Huntingtin Promoter Activity; further: nearly all actives have a fitted effect of over 50% in size
Conditions: HEK293 HTT promoter firefly luciferase reporter (activity 0% = vehicle and -100% = no light), 24 h; activity change, negative = inhibition: at 57.5 µM (top of the series)
How it was run: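 HEK293 cells carrying firefly luciferase reporters were seeded at 2,500 per well in Opti-MEM and cultured for 24 h. They were then treated with compounds at up to 57.5 uM final for 24 h at 37 degrees C before Dual-Glo luminescence readout.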
Potency means the concentration at half of the fitted maximal effect; tags describe the fitted curve by direction and shape.

Structure (SMILES)	Potency	activity change, negative = inhibition
CCOc1ccc(N(C)C(=O)C2CCN(S(=O)(=O)c3ccc4c(c3)CCCN4C(C)=O)CC2)cc1	inconclusive: 28.2 µM [inhibitor, partial curve, poor fit]	–
CCOC(=O)N1CCN(C(=O)c2ccc3c(c2)N(Cc2cc(C)ccc2C)C(=O)c2ccccc2S3=O)CC1 (stereo unspecified)	inconclusive: 35.5 µM [inhibitor, single point]	–
CCCCOc1nnc(-c2ccc(OCC)cc2)c2ccccc12	inconclusive: 31.6 µM [inhibitor, partial curve, poor fit]	–
Cc1oc2ccc(O)c(CN(C)Cc3ccccc3)c2c1C(=O)Nc1cccc(Cl)c1C	inconclusive: 28.2 µM [inhibitor, single point]	–
COC(=O)c1cc(S(=O)(=O)N2CCN(c3cccc(C)c3)C(C)C2)c[nH]1 (stereo unspecified)	inconclusive: 28.2 µM [inhibitor, single point]	–
COc1cccc(CNC(=O)c2cc3n(n2)CCCN(Cc2ccc(C)cc2)C3=O)c1OC	inconclusive: 22.4 µM [inhibitor, partial curve, poor fit]	–
Cc1cccc(-c2nnc3n(CCc4ccccc4)c(=O)c4ccccc4n23)c1	inconclusive: 39.8 µM [inhibitor, single point]	–
Cc1ccc(C)c(NC(=O)N2CCN(C)c3ncccc32)c1	inconclusive: 39.8 µM [inhibitor, single point]	–
Cc1cccc(N2CCN(C(=O)c3ccc(CS(=O)c4cccc(Cl)c4)o3)CC2)c1C (stereo unspecified)	inconclusive: 3.16 µM [inhibitor, partial curve, poor fit]	–
CCSc1nnc2c(n1)OC(c1ccc(C)cc1)N(C(C)=O)c1ccccc1-2 (stereo unspecified)	–	inactive: -31.5%
Cc1ccc(-c2[nH]c3ccccc3c2SCCNC(=O)c2ccc(S(=O)(=O)N(C)C)cc2)cc1	inconclusive: 15.8 µM [inhibitor, partial curve]	–
O=C(O)c1ccccc1NCCc1ccccc1	–	inactive: 19.1%
Cc1ccc(NC(=O)c2c(C)oc3ncnc(N4CCCCC4)c23)cc1Cl	inconclusive: 39.8 µM [inhibitor, single point]	–
Cc1cc(C)c(NS(=O)(=O)c2ccc(-c3cnc(C4CC4)o3)cc2)c(C)c1	inconclusive: 2 µM [inhibitor, partial curve, poor fit]	–
COc1cccc(OCc2nc3ccccc3n2Cc2ccccc2C)c1	inconclusive: 39.8 µM [inhibitor, single point]	–
O=C(Cn1c(=O)oc2cc(S(=O)(=O)NCc3ccccc3)ccc21)Nc1ccc(F)c(Cl)c1	inconclusive: 14.1 µM [inhibitor, partial curve, poor fit]	–
O=C(Nc1ccccc1C(F)(F)F)c1ccc2oc(=O)c(S(=O)(=O)c3ccc(F)cc3)cc2c1	inconclusive: 28.2 µM [inhibitor, partial curve, poor fit]	–
COc1ccc(-c2noc(CCC(=O)Nc3ccc(C(F)(F)F)cc3)n2)cc1	inconclusive: 35.5 µM [inhibitor, single point]	–

Structure (SMILES)	Potency	activity change, negative = inhibition
CC(=O)c1ccc(N2CCN(c3ncnc4c3nc3n4CCCC3)CC2)cc1	inconclusive: 3.55 µM [inhibitor, full curve]	–
Cc1ccc(S(=O)(=O)N(CC(=O)NCCc2ccc(Cl)cc2)c2ccccc2C)cc1	inconclusive: 31.6 µM [inhibitor, partial curve, poor fit]	–
COc1ccc(CCNC(=O)c2cnn(-c3ccc(F)cc3)c2C2CCN(C(=O)OC(C)(C)C)CC2)c(OC)c1	inconclusive: 39.8 µM [inhibitor, partial curve, poor fit]	–
CCc1ccccc1NC(=O)N1CCc2c([nH]c3ccccc23)C1c1ccc(C)cc1 (stereo unspecified)	inconclusive: 28.2 µM [inhibitor, single point]	–
COc1ccc(NC(=O)C2CCCN(S(=O)(=O)c3ccc4c(c3)oc(=O)n4C)C2)c(OC)c1 (stereo unspecified)	inconclusive: 28.2 µM [inhibitor, partial curve, poor fit]	–
COCCCNC(=O)c1ccc(-n2c(-c3ccccc3)cc3c2CCC(C)C3)cc1 (stereo unspecified)	inconclusive: 28.2 µM [inhibitor, partial curve, poor fit]	–
CCCn1c(=O)c2sccc2n2c(CCCC(=O)Nc3ccc(Oc4ccc(Cl)cc4)cc3)nnc12	inconclusive: 22.4 µM [inhibitor, single point]	–
CC(=O)c1ccc(NS(=O)(=O)c2ccc(-c3cc(C)no3)s2)cc1	inconclusive: 39.8 µM [inhibitor, single point]	–
CCOc1ccc(CCNC(=O)C2CCN(C(=O)c3cc4sccc4n3CC)CC2)cc1OCC	inconclusive: 31.6 µM [inhibitor, single point]	–
COc1ccc(N2C(=O)CS(=O)(=O)C23C(=O)N(Cc2ccc(C)cc2)c2ccccc23)cc1Cl (stereo unspecified)	inconclusive: 17.8 µM [inhibitor, single point]	–
CCOc1ccc(NC(=O)N2CCN(Cc3cc(=O)n4nc(-c5ccc(OC)cc5)sc4n3)CC2)cc1	–	inactive: -22.8%
CCn1c(C(=O)NCc2cc(Br)ccc2OC)cc2oc3ccccc3c21	inconclusive: 31.6 µM [inhibitor, partial curve]	–
Cc1cccc(CCNC(=O)CN(c2ccc(C(C)C)cc2)S(=O)(=O)c2c(C)nn(C)c2C)c1	inconclusive: 39.8 µM [inhibitor, single point]	–
COc1ccc(OCC(=O)NC2CC(=O)N(c3ccc4c(c3)OCCO4)C2)cc1 (stereo unspecified)	–	inactive: -7.02%
CCc1ccc(NS(=O)(=O)c2c(C)nc3sc(CC)nn3c2=O)cc1	inconclusive: 17.8 µM [inhibitor, partial curve, poor fit]	–
COc1ccc(-c2cc(C)no2)cc1S(=O)(=O)N1CCN(c2ccccc2F)CC1	inconclusive: 20 µM [inhibitor, partial curve, poor fit]	–
CCOc1cccc(C2CC(=O)Nc3cc4c(cc32)OCCO4)c1 (stereo unspecified)	inconclusive: 11.2 µM [inhibitor, partial curve]	–
COCCNC(=O)C1CCN(c2nc3ccccc3nc2C(F)(F)F)CC1	–	inactive: -2.44%
